Data published in PubChem BioAssay AID504832 (National Center for Advancing Translational Sciences (NCATS), 2011).
Hit rate of the full screen: of about 310,000 compounds, about 18,000 (5.8%) were called active. The shares of active, inactive and inconclusive entries below differ from those in the screen. The call rests on the fitted dose curve; in most records, active means well fitted inhibition curve with a large enough effect; inconclusive means small, poorly fitted or top-dose-only effect, or another doubt; inactive means no such curve, though single readings can be large or run the other way. Potencies of inconclusive entries are left out as doubtful fits.

experiment: Primary qHTS for delayed death inhibitors of the malarial parasite plastid, 48 hour incubation; conditions: P. falciparum luciferase growth in erythrocytes; series mostly up to 28.7 µM; activity change, negative = inhibition: at the top concentration
How it was run: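 Luciferase-expressing parasites in RBCs, 2% Hct / 0.1% parasitemia final; RPMI 1640 + 0.5% Albumax; 37 C, 5% CO2, one generation; luminescence read-out, lower signal = inhibition.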
On the % scale 0 is the no-effect control and ±100 the full control effect; potency means the concentration at half of the fitted maximal effect; tags describe the fitted curve by direction and shape.

Row | SMILES | Potency | activity change, negative = inhibition
1 | CC1=CC2=NC(=O)/C(=C\c3cccn3CCOc3cc(C)cc(C)c3)C(=N)N2O1 | inconclusive [inhibitor, single point] | –
2 | CC1(C)C(=O)Nc2ccccc2N1C(=O)COC(=O)c1ccc(NC(N)=O)cc1 | inconclusive [inhibitor, single point] | –
3 | COc1ccc(Cc2nnc(NC(=O)c3ccc(F)cc3)s2)cc1OC | inconclusive [inhibitor, partial curve, poor fit] | –
4 | Cc1csc(NC(=O)c2nn(C)c(C)c2[N+](=O)[O-])n1 | – | inactive: 103%
5 | COc1ccc(N2CCN(C(c3ccco3)c3sc4nc(C)nn4c3O)CC2)cc1 (stereo unspecified) | inconclusive [inhibitor, partial curve, poor fit] | –
6 | COc1ccc2c3c(c(=O)oc2c1)C1O[C@](c2ccsc2)(Cc2cc(C#N)ccc21)O3 | inconclusive [inhibitor, single point] | –
7 | O=c1oc2cc(O)ccc2s1 | inconclusive [inhibitor, single point] | –
8 | CC(=O)c1ccc(N2CCN(C(=O)Nc3ccc(Cl)cc3)CC2)cc1 | inconclusive [inhibitor, partial curve] | –
9 | COc1ccc(C(=O)NCc2nnc(SCC(=O)N3CCc4ccccc43)n2CCc2ccccc2)cc1 | inconclusive [inhibitor, single point] | –
10 | CCOc1ccc(NC(=O)CN(C)C(=O)c2cc([N+](=O)[O-])ccc2N2CCOCC2)cc1OCC | inconclusive [inhibitor, single point] | –
11 | CCC(C)Nc1nc2c(c(=O)n(C)c(=O)n2C)n1Cc1ccc(Cl)cc1 (stereo unspecified) | inconclusive [inhibitor, single point] | –
12 | CC1CCC(NS(=O)(=O)c2ccc(Cl)s2)CC1 (stereo unspecified) | inconclusive [inhibitor, single point] | –
13 | CC(C)CN(C(=O)CN(C)C(=O)Cc1ccccc1Cl)c1c(N)n(CC(C)C)c(=O)[nH]c1=O | inconclusive [inhibitor, single point] | –
14 | COc1ccc(-n2nc(C(=O)NCC(=O)N3CCC4(CC3)OCCO4)c3ccccc3c2=O)cc1OC | inconclusive [inhibitor, single point] | –
15 | CN1CCN(S(=O)(=O)c2ccc(NC(=O)c3csc4ccccc34)cc2)CC1 | active: 4.65 µM | –
16 | CCCn1c(SCC(=O)N2c3ccccc3CCc3ccccc32)nc2c1c(=O)n(C)c(=O)n2C | active: 14.7 µM | –
17 | CN(CCCNC(=O)c1ccc(/C=N/O)nc1)CCCN(C)Cc1ccccc1 | inconclusive [inhibitor, single point] | –
18 | Cc1noc(C)c1CSc1nc2[nH]ncc2c(=O)n1-c1ccccc1 | inconclusive [inhibitor, single point] | –
19 | C/C(=N\NC(=O)c1ccccn1)c1ccc(Cl)cc1 | – | inactive: -7.05%
20 | COc1ccc(NC(=S)NC2CC3CCC2C3)c(OC)c1 (stereo unspecified) | inconclusive [inhibitor, single point] | –
21 | c1ccc(Oc2cc(-c3ccccc3)ncn2)cc1 | – | inactive: 88%
22 | C#CCn1c(S(=O)(=O)Cc2ccc(C)cc2)nc(-c2ccccc2)c1-c1ccccc1 | inconclusive [inhibitor, single point] | –

Row | SMILES | Potency | activity change, negative = inhibition
23 | NC(=O)CSc1nc(N)c2c3c(sc2n1)CCCCC3 | – | inactive: 45%
24 | Cc1ccc(-n2nc3c(N4CCC(C(=O)NCCc5cccs5)CC4)nnc(C)c3c2C)cc1 | inconclusive [inhibitor, single point] | –
25 | N#Cc1nc(-c2cccs2)oc1NCc1ccc2c(c1)OCO2 | – | inactive: 16%
26 | CCN(C1CCCCC1)S(=O)(=O)CCNC(=O)c1ccccc1 | inconclusive [inhibitor, full curve, poor fit] | –
27 | Cc1ccc(N/C=C2\C(=O)N(c3ccc(F)cc3F)C(c3cccnc3)S2(=O)=O)cc1 (stereo unspecified) | inconclusive [inhibitor, partial curve, poor fit] | –
28 | CCc1cc2c(=O)c(-c3cnn(-c4ccccc4)c3)c(C)oc2c(CN2CCCCC2)c1O | active: 14.7 µM | –
29 | COc1ccccc1NC(=O)COC(=O)Cc1c[nH]c2ccccc12 | inconclusive [inhibitor, single point] | –
30 | Cc1ccc(C2(CCNCc3ccc(N(C)C)cc3)CCOC(C(C)C)C2)cc1 (stereo unspecified) | inconclusive [inhibitor, single point] | –
31 | Cc1ccc(-c2nc(CSCC(=O)NC3CCN(Cc4ccccc4)CC3)c(C)o2)cc1 | inconclusive [inhibitor, partial curve, poor fit] | –
32 | Cc1c(-c2cccc(Cl)c2)nc2ccccc2c1C(=O)NC1CC1 | – | inactive: -23.8%
33 | CC(C(=O)NCC1CCCCC1)N1CCN(S(=O)(=O)c2cccs2)CC1 (stereo unspecified) | active: 9.28 µM | –
34 | CCCCOc1ccc(C(=O)NCC(=O)N2CC=C(c3ccccc3)CC2)cc1 | – | inactive: 3.6%
35 | Cc1c(NS(=O)(=O)c2ccc(N(C)C3CCCCC3)c([N+](=O)[O-])c2)c(=O)n(-c2ccccc2)n1C | inconclusive [inhibitor, partial curve, poor fit] | –
36 | CCN(CC(=O)Nc1c(F)cccc1F)C(=O)c1ccc(C#N)cc1 | – | inactive: 27.4%
37 | COCCNC(=S)NN(c1ccccc1)c1ccccc1 | inconclusive [inhibitor, partial curve] | –
38 | O=c1[nH]c2ccccc2cc1CN(Cc1cccnc1)S(=O)(=O)c1ccc(Cl)cc1 | inconclusive [inhibitor, single point] | –
39 | Cn1c(=O)c2c(-c3ccccc3)n(C3CCCCC3)cc2n(C)c1=O | inconclusive [inhibitor, partial curve, poor fit] | –
40 | CN(C(=O)CC1C(=O)NCCN1Cc1ccc(F)cc1)C1CCOCC1 (stereo unspecified) | – | inactive: 32.8%
41 | Cn1nccc1C(=O)N/N=C/c1c(O)ccc2ccccc12 | active: 2.62 µM | –
42 | COc1ccccc1NC(=O)N(Cc1ccco1)Cc1cc2cccc(C)c2[nH]c1=O | inconclusive [inhibitor, single point] | –
43 | COc1cc(C(=O)Nc2c(C(=O)O)[nH]c3ccc(Br)cc23)cc(OC)c1OC | inconclusive [inhibitor, partial curve, poor fit] | –
44 | Cc1ccc(NC(=O)CSc2nc3ccccc3nc2N2CCCC2)cc1 | inconclusive [inhibitor, single point] | –

Row | SMILES | Potency | activity change, negative = inhibition
45 | COc1cc(C2c3c(n[nH]c3C)C(=O)N2c2ccc(C)cc2)ccc1O (stereo unspecified) | – | inactive: 34.6%
46 | Cc1nc(Cl)sc1C(=O)Nc1ccccc1Cl | inconclusive [inhibitor, partial curve, poor fit] | –
47 | CCc1nn(CCCC(=O)Nc2ccc(C)c(C)c2)c(=O)c2cc3occc3n12 | inconclusive [inhibitor, partial curve] | –
48 | Cc1ccc(C(=O)N/N=C\c2ccc(-c3ccc(Cl)c(Cl)c3)o2)cn1 | inconclusive [inhibitor, single point] | –
49 | CN1CCN(c2nc3c(c(=O)[nH]c(=O)n3C)n2Cc2ccc(Cl)cc2)CC1 | inconclusive [inhibitor, partial curve, poor fit] | –
50 | COc1ccc(CNC(=O)C2CCCN2C(=O)NCc2ccccc2)cc1 (stereo unspecified) | inconclusive [inhibitor, full curve, poor fit] | –
51 | O=C(NCC1CCCO1)c1cc2ccccc2cc1O (stereo unspecified) | inconclusive [inhibitor, single point] | –
52 | COCc1cc(CN2CCCC(C(=O)c3cccc(C(F)(F)F)c3)C2)ccc1OC (stereo unspecified) | inconclusive [inhibitor, partial curve, poor fit] | –
53 | COc1ccc(C(=O)/C=C/c2cccc(OCc3ccccc3)c2)cc1CSCC(=O)O | active: 9.28 µM | –
54 | CC(=O)c1ccc(OCC(=O)N2CCN(S(=O)(=O)c3ccc(C)cc3C)CC2)cc1 | inconclusive [inhibitor, single point] | –
55 | CC1=C(C(=O)NC2CCCCC2C)C2(CCC(C)CC2)OC1=O (stereo unspecified) | active: 9.28 µM | –
56 | Cc1ccc(N2CC(c3nc4ccccc4[nH]3)CC2=O)c(C)c1 (stereo unspecified) | inconclusive [inhibitor, partial curve, poor fit] | –
57 | COc1ccc(S(=O)(=O)N/N=C\c2ccc3c(c2)OCO3)cc1 | – | inactive: 15.7%
58 | CCOc1nc(S(=O)(=O)c2ccc(C)cc2)c(Cl)s1 | – | inactive: 0%
59 | COc1ccc(NC(=S)N2CCC(C(=O)c3ccc(C)cc3)CC2)cc1 | inconclusive [inhibitor, partial curve] | –
60 | COc1ccccc1C(=O)n1nc(-c2cccnc2)nc1NCc1ccccc1 | inconclusive [inhibitor, partial curve, poor fit] | –
61 | C[C@@H](C(=O)NC1CCCCC1)N1C(=O)N2CCc3c([nH]c4ccccc34)[C@@]2(C)C1=O | – | inactive: 45%
62 | CCOc1ccc(NC(=O)CN2CCN(c3ccccc3C)CC2)cc1S(=O)(=O)N1CCCC1 | inconclusive [inhibitor, partial curve, poor fit] | –
63 | COc1ccc(CC(=O)N2CCN(c3ccccc3OC)CC2)cc1OC | – | inactive: 6.42%
64 | C/C(NC(=O)c1cccs1)=C1\C(=O)C[C@@H]2[C@H]1C2(C)C | inconclusive [inhibitor, single point] | –
65 | O=C(CCN1CCN(c2ccccc2)CC1)Nc1ccc2c(c1)OCO2 | inconclusive [inhibitor, partial curve, poor fit] | –
66 | COc1ccc(C(=O)N2CCN(S(=O)(=O)c3ccc4c(c3)OCCO4)CC2)cc1OC | inconclusive [inhibitor, partial curve, poor fit] | –
